{"source": "the supplement of paper PMC8728848", "test_in_all_cases": "glycan array binding signal (z-score within array); higher = stronger binding", "details_in_all_cases": "glycan notation: IUPAC condensed, linker removed", "key": {"[1]": {"biological_target": "Neu5Ac(a2-3)Gal(b1-4)GlcNAc(b1-6)GalNAc", "procedure,_shortened": "(§1)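 From the Consortium for Functional Glycomics database, 3228 arrays were curated, keeping only those whose protein sequence was available. Binding is given as a within-array Z-score averaged across arrays sharing a protein sequence and across linkers. Negative Z-scores can be read as non-binding.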"}, "[2]": {"biological_target": "Neu5Ac(a2-3)Gal(b1-4)GlcNAc(b1-6)[Gal(b1-3)]GalNAc", "procedure,_shortened": "as §1"}, "[3]": {"biological_target": "Neu5Ac(a2-3)Gal(b1-4)GlcNAc(b1-6)[Neu5Ac(a2-3)Gal(b1-3)]GalNAc", "procedure,_shortened": "as §1"}, "[4]": {"biological_target": "Neu5Ac(a2-3)Gal(b1-4)GlcNAc6S", "procedure,_shortened": "as §1"}, "[5]": {"biological_target": "Neu5Ac(a2-3)Gal(b1-4)[Fuc(a1-3)]GlcNAc", "procedure,_shortened": "as §1"}, "[6]": {"biological_target": "Neu5Ac(a2-3)Gal(b1-4)[Fuc(a1-3)]GlcNAc(b1-2)Man", "procedure,_shortened": "as §1"}, "[7]": {"biological_target": "Neu5Ac(a2-3)Gal(b1-4)[Fuc(a1-3)]GlcNAc(b1-3)Gal", "procedure,_shortened": "as §1"}, "[8]": {"biological_target": "Neu5Ac(a2-3)Gal(b1-4)[Fuc(a1-3)]GlcNAc(b1-3)Gal(b1-4)GlcNAc", "procedure,_shortened": "as §1"}, "[9]": {"biological_target": "Neu5Ac(a2-3)Gal(b1-4)[Fuc(a1-3)]GlcNAc(b1-3)Gal(b1-4)[Fuc(a1-3)]GlcNAc(b1-3)Gal(b1-4)[Fuc(a1-3)]GlcNAc", "procedure,_shortened": "as §1"}, "[10]": {"biological_target": "Neu5Ac(a2-3)Gal(b1-4)[Fuc(a1-3)]GlcNAc(b1-3)GalNAc", "procedure,_shortened": "as §1"}, "[11]": {"biological_target": "Neu5Ac(a2-3)Gal(b1-4)[Fuc(a1-3)]GlcNAc(b1-6)[Gal(b1-3)]GalNAc", "procedure,_shortened": "as §1"}, "[12]": {"biological_target": "Neu5Ac(a2-3)Gal(b1-4)[Fuc(a1-3)]GlcNAc(b1-6)[Neu5Ac(a2-3)Gal(b1-3)]GalNAc", "procedure,_shortened": "as §1"}, "[13]": {"biological_target": "Neu5Ac(a2-3)Gal(b1-4)[Fuc(a1-3)]GlcNAc6S", "procedure,_shortened": "as §1"}, "[14]": {"biological_target": "Neu5Ac(a2-3)Gal6S(b1-4)GlcNAc", "procedure,_shortened": "as §1"}, "[15]": {"biological_target": "Neu5Ac(a2-3)Gal6S(b1-4)[Fuc(a1-3)]GlcNAc", "procedure,_shortened": "as §1"}, "Neu5Ac(a2-3)GalNAc": {"biological_target": "Neu5Ac(a2-3)GalNAc", "procedure,_shortened": "as §1"}, "[16]": {"biological_target": "Neu5Ac(a2-3)GalNAc(b1-4)GlcNAc", "procedure,_shortened": "as §1"}, "[17]": {"biological_target": "Neu5Ac(a2-3)[GalNAc(b1-4)]Gal(b1-4)Glc", "procedure,_shortened": "as §1"}, "[18]": {"biological_target": "Neu5Ac(a2-3)[GalNAc(b1-4)]Gal(b1-4)GlcNAc", "procedure,_shortened": "as §1"}, "[19]": {"biological_target": "Neu5Ac(a2-3)[GalNAc(b1-4)]Gal(b1-4)GlcNAc(b1-3)GalNAc", "procedure,_shortened": "as §1"}, "[20]": {"biological_target": "Neu5Ac(a2-3)[Neu5Ac(a2-6)]GalNAc", "procedure,_shortened": "as §1"}, "Neu5Ac(a2-6)Gal": {"biological_target": "Neu5Ac(a2-6)Gal", "procedure,_shortened": "as §1"}, "[21]": {"biological_target": "Neu5Ac(a2-6)Gal(b1-3)GlcNAc(b1-3)[Gal(b1-4)GlcNAc(b1-6)]Gal(b1-4)Glc", "procedure,_shortened": "as §1"}, "Neu5Ac(a2-6)Gal(b1-4)Glc": {"biological_target": "Neu5Ac(a2-6)Gal(b1-4)Glc", "procedure,_shortened": "as §1"}, "[22]": {"biological_target": "Neu5Ac(a2-6)Gal(b1-4)GlcNAc", "procedure,_shortened": "as §1"}, "[23]": {"biological_target": "Neu5Ac(a2-6)Gal(b1-4)GlcNAc(b1-2)Man", "procedure,_shortened": "as §1"}, "[24]": {"biological_target": "Neu5Ac(a2-6)Gal(b1-4)GlcNAc(b1-2)Man(a1-3)Man(b1-4)GlcNAc(b1-4)GlcNAc", "procedure,_shortened": "as §1"}, "[25]": {"biological_target": "Neu5Ac(a2-6)Gal(b1-4)GlcNAc(b1-2)Man(a1-3)[Gal(b1-4)GlcNAc(b1-2)Man(a1-6)]Man(b1-4)GlcNAc(b1-4)GlcNAc", "procedure,_shortened": "as §1"}, "[26]": {"biological_target": "Neu5Ac(a2-6)Gal(b1-4)GlcNAc(b1-2)Man(a1-3)[GlcNAc(b1-2)Man(a1-6)]Man(b1-4)GlcNAc(b1-4)GlcNAc", "procedure,_shortened": "as §1"}, "[27]": {"biological_target": "Neu5Ac(a2-6)Gal(b1-4)GlcNAc(b1-2)Man(a1-3)[GlcNAc(b1-4)][Neu5Ac(a2-6)Gal(b1-4)GlcNAc(b1-2)Man(a1-6)]Man(b1-4)GlcNAc(b1-4)GlcNAc", "procedure,_shortened": "as §1"}}, "note": "The list shows a part of the results."}
{"binder": "ECL (Erythrina cristagalli), Q6YD91 (protein) VETISFSFSEFEPGNNDLTLQGAAIITQSGVLQLTKINQNGMPAWDSTGRTLYTKPVHIWDMTTGTVASFETRFSFSIEQPYTRPLPADGLVFFMGPTKSKPAQGYGYLGVFNNSKQDNSYQTLAVEFDTFSNPWDPPQVPHIGIDVNSIRSIKTQPFQLDNGQVANVVIKYDASSKILLAVLVYPSSGAIYTIAEIVDVKQVLPEWVDVGLSGATGAQRDAAETHDVYSWSFHASLPETND", "values": [{"measurement": "glycan array binding signal (z-score)", "setting": "[1]", "value": -0.351}, {"measurement": "glycan array binding signal (z-score)", "setting": "[2]", "value": -0.32}, {"measurement": "glycan array binding signal (z-score)", "setting": "[3]", "value": -0.366}, {"measurement": "glycan array binding signal (z-score)", "setting": "[4]", "value": -0.222}, {"measurement": "glycan array binding signal (z-score)", "setting": "[5]", "value": -0.268}, {"measurement": "glycan array binding signal (z-score)", "setting": "[6]", "value": -0.332}, {"measurement": "glycan array binding signal (z-score)", "setting": "[7]", "value": -0.424}, {"measurement": "glycan array binding signal (z-score)", "setting": "[8]", "value": -0.043}, {"measurement": "glycan array binding signal (z-score)", "setting": "[9]", "value": -0.241}, {"measurement": "glycan array binding signal (z-score)", "setting": "[10]", "value": -0.17}, {"measurement": "glycan array binding signal (z-score)", "setting": "[11]", "value": 1.35}, {"measurement": "glycan array binding signal (z-score)", "setting": "[12]", "value": -0.092}, {"measurement": "glycan array binding signal (z-score)", "setting": "[13]", "value": -0.293}, {"measurement": "glycan array binding signal (z-score)", "setting": "[14]", "value": -0.336}, {"measurement": "glycan array binding signal (z-score)", "setting": "[15]", "value": -0.434}, {"measurement": "glycan array binding signal (z-score)", "setting": "Neu5Ac(a2-3)GalNAc", "value": -0.491}, {"measurement": "glycan array binding signal (z-score)", "setting": "[16]", "value": -0.413}, {"measurement": "glycan array binding signal (z-score)", "setting": "[17]", "value": -0.505}, {"measurement": "glycan array binding signal (z-score)", "setting": "[18]", "value": -0.393}, {"measurement": "glycan array binding signal (z-score)", "setting": "[19]", "value": 0.548}, {"measurement": "glycan array binding signal (z-score)", "setting": "[20]", "value": -0.483}, {"measurement": "glycan array binding signal (z-score)", "setting": "Neu5Ac(a2-6)Gal", "value": -0.186}, {"measurement": "glycan array binding signal (z-score)", "setting": "[21]", "value": -0.064}, {"measurement": "glycan array binding signal (z-score)", "setting": "Neu5Ac(a2-6)Gal(b1-4)Glc", "value": -0.284}, {"measurement": "glycan array binding signal (z-score)", "setting": "[22]", "value": -0.23}, {"measurement": "glycan array binding signal (z-score)", "setting": "[23]", "value": -0.253}, {"measurement": "glycan array binding signal (z-score)", "setting": "[24]", "value": -0.235}, {"measurement": "glycan array binding signal (z-score)", "setting": "[25]", "value": -0.266}, {"measurement": "glycan array binding signal (z-score)", "setting": "[26]", "value": -0.345}, {"measurement": "glycan array binding signal (z-score)", "setting": "[27]", "value": -0.531}]}
